T1: UNK ZnF1-3 (human, UniProt Q9C0B0 31-174)
T1 sequence: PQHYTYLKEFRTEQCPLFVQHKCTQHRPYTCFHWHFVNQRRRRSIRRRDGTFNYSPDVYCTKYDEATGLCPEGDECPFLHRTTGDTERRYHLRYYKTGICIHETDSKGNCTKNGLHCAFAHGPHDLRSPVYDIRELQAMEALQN

B1: chr16:94664741:94664742:+_ENSMUSG00000040785_ENSMUST00000117648|mus_hu|mus_mus_mus_hu_False|38_78 (ssRNA)
RNA: GGGAGUUCUACAGUCCGACGAUCUGGUACUGAUCUUGGUAGCUGAUAUUCAGGAGAAAUGUUGGCCAAGGGUGUAUAUAUGCUGGUGUACUGGGGCAGGCUAGGUAACACGUUUAUGUAUGCUGGCGGUGUCUGGGUGAUAUCCAACAGAGGAUUGAGCAUCA
B2: chr1:135975629:135975630:-_ENSMUSG00000020423_ENSMUST00000020692|mus_mus|FALSE|FALSE (ssRNA)
RNA: GGGAGUUCUACAGUCCGACGAUCGAAACCCACGGCGGCGGCGAUCUCCGGGAGCAUGUCGGUUCUCUUCCCGUGGCUCAUACCGGUGGCUGAGGAAGUAGCUGUAUUAGAACGAUGAUGACGGUCUGGCCACCUCUCGGGCUCCAACAGAGGAUUGAGCAUCA
B3: 72952293_72953195_3532_CDS_ENSMUSG00000033487_ENSMUST00000089017|mouse|control|control (ssRNA)
RNA: GGGAGUUCUACAGUCCGACGAUCAUCUUUUCCCACCAUAACUUGAAGAUUAUAAAUAACUGGGUCACCCUUCAUUGGCUGUAAAUAUUCCCAUGUAAUUUCACAAAUGUGAUCAUUUAUUUUCUCUAUUUUGGGGGCUUUCAACAACAGAGGAUUGAGCAUCA
B4: chr4:184614817:184614818:+_ENSG00000168538_ENST00000334690|hu_hu|FALSE|FALSE (ssRNA)
RNA: GGGAGUUCUACAGUCCGACGAUCGGUGAGCUUCACAUCUCUGAUUUGGGUCUUUUCAUGGGACUGAACAGUCACAACCAAACAAUACAUUUCAUUAGUCAGUGCAGGGGGUUCAUGUAGCAGAUGUACAGAAAUGUUUGGGACCAACAGAGGAUUGAGCAUCA
B5: 36958300_36958420_972_CDS_ENSMUSG00000029190_ENSMUST00000132383|mouse|control|control (ssRNA)
RNA: GGGAGUUCUACAGUCCGACGAUCAGUACCUGCUGCGAGGUAUGUUCUGUGGAUAUUACUGUUACUGAUACACAGACCACGCACAGAGUCAGACAAGUCUUCCACUGCCUCUGCUGUCAGAGUACUUGUAUCUUCCCUGUUUCGCAACAGAGGAUUGAGCAUCA
B6: chr15:58001004:58001005:+_ENSG00000255529_ENST00000299638|hu_mus|FALSE|FALSE (ssRNA)
RNA: GGGAGUUCUACAGUCCGACGAUCGUCUACAUCGGUGUCAGCUCUUGUGGUUGCUUUUUGCCUUAGCUUACAGUCUACACUAACAGGAUGAAACAGUUCACUUCUCCCUCUAACCUCUUCACGUUCUGAAAUGGCAGCUUUCAGCAACAGAGGAUUGAGCAUCA
B7: chrX:34421674:34421675:+_ENSMUSG00000016308_ENSMUST00000016452|mus_mus|FALSE|FALSE (ssRNA)
RNA: GGGAGUUCUACAGUCCGACGAUCGAACAUCUUAGAGACAAAUCUAACAGUAGGUGGCUUAUUAGGAUACUCUUCAGUGAAUUCAAUUGUAAGCUUAAAUGUUCCAUCCUCAAACGGGGUCCCUUCGGGCCCAAAAAUGACCGCCAACAGAGGAUUGAGCAUCA
B8: chr10:106027121:106027122:+_ENSG00000148834_ENST00000369713|hu_mus|FALSE|FALSE (ssRNA)
RNA: GGGAGUUCUACAGUCCGACGAUCGGCCUCGGGGCUGUCCUGUAGGUAGAGAUUUAAGUACUCGCGGUAGGUCUUGGCAUCAAUUUUGUGAGAGGAUGCCACAGGGUCUUGCUGCAUGGCCGCCAUCCAGAGCUUGAGCUUGGGCAACAGAGGAUUGAGCAUCA
B9: 76008110_76027685_211_3pUTR_ENSG00000078687_ENST00000588847|human|control|control (ssRNA)
RNA: GGGAGUUCUACAGUCCGACGAUCGUUGCUGCUUGAGAUAGUGCUGGUGGAAGUACUGGUACUGGUACCGGCAGGUUGGGGCUGGCUUGAACAGGUCUUAGUAGGUUCUGGCACUGUAGCGAUGAGUCUUUCUGCCCAACUCUACAACAGAGGAUUGAGCAUCA
B10: 103941475_103946771_1592_CDS_ENSG00000075413_ENST00000216288|human|control|control (ssRNA)
RNA: GGGAGUUCUACAGUCCGACGAUCGCAAACAUAAGUAUUUCGUCGUGUCAUUCCACCAGAUGCUGUGUUACUACUAGGGACAGUGGAGCUUUUCUUGCGUUCAGGAAUAUCCGCCUUAUUAGGAUUACUUGCAUUCCCAAGCAUCAACAGAGGAUUGAGCAUCA
B11: chr1:163117127:163117128:-_ENSG00000143248_ENST00000313961|hu_mus|hu_hu_hu_mus_False|38_68 (ssRNA)
RNA: GGGAGUUCUACAGUCCGACGAUCUGCUACAAAGGAUGUAACUCAACUCACAGGGCAACUUUUGGAAGCCUGGCUAAAUGACUACUUGAUUAGCUCCUGAUAAAACUCAGAGCGCACAAAGCGGGGCAGAGAAUCCUUCUCCAUCAACAGAGGAUUGAGCAUCA
B12: chrX:20248820:20248821:+_ENSMUSG00000001924_ENSMUST00000001989|mus_mus|mus_mus_mus_hu_True|68_68 (ssRNA)
RNA: GGGAGUUCUACAGUCCGACGAUCGGCGAAGUCCGUCACCACAAAGUCAGGUUCUGCCAGUGAGGCCGGCAAGGAUUUAAAGCUAAUCUUCUUAGGUACUUUGACCUGACUGACGAUGCCUCCACGGAUGUAGUCGGAGAAGUUCAACAGAGGAUUGAGCAUCA
B13: 49445440_49445560_1965_CDS_ENSG00000167548_ENST00000301067|human|control|control (ssRNA)
RNA: GGGAGUUCUACAGUCCGACGAUCAGGCGGUGGGGACAAGGGAGAUUCCUCAGGCGGUGGAGACAGGCGUGACACCACAGGCAGGGGGGAUAGGCGCGAUACCUCAGGUGGGGGGGACAUAGGUGAUUCUUCAGGUGGUGGGGACAACAGAGGAUUGAGCAUCA
B14: chr15:80044675:80044676:+_ENSMUSG00000042428_ENSMUST00000044970|mus_mus|FALSE|FALSE (ssRNA)
RNA: GGGAGUUCUACAGUCCGACGAUCCCUACGCCCACACAUGAGUAUCAUCUUUGUACAGGGACACAUGGAUACAGACAUGUACAAUACACACCAAGCAUGCACCCAUGCCCAUAAAUAUACAUACACGCACAAACACGGACCAUUCAACAGAGGAUUGAGCAUCA
B15: chr5:21408736:21408737:-_ENSMUSG00000042453_ENSMUST00000161356|mus_hu|mus_mus_mus_hu_False|8_48 (ssRNA)
RNA: GGGAGUUCUACAGUCCGACGAUCGUUGACAGAGUUGUAGAUGGUGGCUUCAUGGAACUGGAAAGGGGAGCAGCCAAUGCUGUUAGAAGAGGAAGGUAGGCACUGGGUCUGUACGAGCUGCCAGGAAUCGGACCUUGCAUCCUUCAACAGAGGAUUGAGCAUCA
B16: chr4:123032474:123032475:-_ENSMUSG00000028649_ENSMUST00000154824|mus_hu|motif|central (ssRNA)
RNA: GGGAGUUCUACAGUCCGACGAUCGUGAGCGGAAGGGGGUCAUUCCCUGGGAUGCUCCCUCUGGUAGGAUGAAUUUCUCUCGGAGUUCAAUGUUAGUUCUACCUCGUGCUCGGCAGGGAUCAUUUUUCACUAAAAAUUCAUCCACAACAGAGGAUUGAGCAUCA
B17: chr19:8913615:8913616:-_ENSMUSG00000071658_ENSMUST00000096259|mus_hu|mus_mus_mus_hu_False|8_108 (ssRNA)
RNA: GGGAGUUCUACAGUCCGACGAUCAGGGGGGCACCAACUUCUGCCUGAAAUGGGUGCCCCACCCAGUAGGGAGUUGCAGCUGAAAGUAUCUGAUGCAGAAGCAGUGACUAUACGAAAGGAGGCCCCUGAUGCUCAGAAGGCCAGCAACAGAGGAUUGAGCAUCA
B18: chr3:179287964:179287965:+_ENSG00000136518_ENST00000429709|hu_hu|hu_hu_hu_mus_True|8_68 (ssRNA)
RNA: GGGAGUUCUACAGUCCGACGAUCCUUGAGUGGUGAGAUGGCCUCCAUGUUCUCCCUGGGCACGCGGAGAGCAUUAGUGUCUAUGUAGUAGGUGGGCCCGCCCUGCUUGCCUUUGUCACCAUCAAUCUCCAUUAAUGUACUUCCCAACAGAGGAUUGAGCAUCA
B19: 53688312_53692579_301_CDS_ENSMUSG00000024974_ENSMUST00000025930|mouse|control|control (ssRNA)
RNA: GGGAGUUCUACAGUCCGACGAUCAACACGAGGACCUGUACCCUCAUGCAACAAAGCCAAUCGCUGCUCUGGACGAAGAUGGCUGAAUUCAUCACUGAGAACAAACUGGAUUGCAUAAAAGAAGUUGCUUUUUCCAGAGCCAUUCAACAGAGGAUUGAGCAUCA
B20: chr5:128440902:128440903:+_ENSG00000066583_ENST00000173527|hu_mus|hu_hu_hu_mus_True|8_78 (ssRNA)
RNA: GGGAGUUCUACAGUCCGACGAUCUUGAACGGUGCUGCCAAGUCCUUUGGGGUAUUGUUCUGUUACAAUAACUGGAAUCCCUAAGAUCCGAGCUCCUUGCAACAGUCUCUGUCCCACACUAAUGAUGUCCCCAAAAUAUUUGAUCAACAGAGGAUUGAGCAUCA
B21: chr4:141323876:141323877:-_ENSMUSG00000040697_ENSMUST00000038014|mus_hu|FALSE|FALSE (ssRNA)
RNA: GGGAGUUCUACAGUCCGACGAUCGGUCAGGUCAGGAAGCACUGCUUCAGAGGACAGAAGAGCUGGAUCUUUACGCAGCUGGUCGAGAUAGCCCAAGAGGAUAAAUUUGUCACUCUCACUCCCAAUCCAAGGGUCUUCCAGGGUCAACAGAGGAUUGAGCAUCA
B22: chr7:82072735:82072736:-_ENSG00000153956_ENST00000356860|hu_mus|FALSE|FALSE (ssRNA)
RNA: GGGAGUUCUACAGUCCGACGAUCAGUGACGGGCGAAGGGAAGGGCUCCUCGCUCGAGGGGCCGAUCAGCCCAGAUUGGAAAAGUGUCAGAGUCAAGGCCAGCAGGCAGCCAGCAGCCAUCUUCGCGAUCGAAGAUCAGUGCCCCAACAGAGGAUUGAGCAUCA

This is one part of the list.

22 molecules from paper PMC12136788 can be followed below.

The target of this experiment is T1, UNK ZnF1-3. Description: nsRBNS (natural sequence RNA bind-n-seq); RBNS binding buffer (assumed for nsRBNS): 25 mM Tris pH 7.5, 150 mM KCl, 3 mM MgCl2, 0.01% Triton X-100, 500 ug/ml BSA, 20 U/ml SUPERase-In, 4 C; UNK is unkempt and MSI1 is Musashi-1; names of the RNAs are library labels; protein concentration not given here; high values mean tight binding.
Molecule B1 came in with a binding signal of 1.06 enrichment R. Molecule B2 displayed a binding signal of 1.31 enrichment R. The result for B3 reads 1.14 enrichment R; that for B4, 2.64 enrichment R; that for B5, 0.618 enrichment R. Molecule B6 registered a binding signal of 0.568 enrichment R.

In the case of B7, the binding signal came to 1.02 enrichment R. B8: the binding signal was determined as 2.08 enrichment R.

In the case of B9, the binding signal stood at 0.681 enrichment R. B10 displayed a binding signal of 0.84 enrichment R.

The molecule B11 yielded a binding signal of 1.03 enrichment R.

Consider B12, for which the binding signal came out at 0.878 enrichment R. In the case of B13, the binding signal was 1.96 enrichment R.

B14 had a binding signal of 1.03 enrichment R. The result for B15 reads 1.53 enrichment R. B16 came in with a binding signal of 0.788 enrichment R. Regarding B17, the binding signal was found to be 0.412 enrichment R. In turn, B18 returned a binding signal of 0.639 enrichment R. As for B19, the figure is 1.11 enrichment R; as for B20, 0.668 enrichment R; as for B21, 1.68 enrichment R.

Turning to B22, the binding signal amounted to 1.21 enrichment R.
